In all, about 110,000 compounds were measured (“z-score”: median about -0.1, highest 2% from about 2 on). This is one part of the list. The source made the active and inactive calls.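 Rule for the calls: active = z-score in the third read window above 3 or below -3; inactive = the rest.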 Non-standard residues stand in square brackets, D forms with d. Residues, ends and D or L forms follow the SMILES beside them. ξ: configuration not given here. *: point of attachment. ξF = NC(Cc1ccccc1)C(=O)O; Cbz = O=C(OCc1ccccc1)*

The test has as its target Metabotropic glutamate receptor 8 (Rattus norvegicus) (UniProt P70579). Briefly: rat mGluR8 modulators via GIRK flux, primary screen, cell-based, thallium flux, HTS (AID 488969). Particulars: HEK293 rat mGluR8, GIRK (G protein-gated inwardly rectifying potassium channel) thallium flux, FluoZin2; at 10 µM; stronger effect = higher value; submaximal glutamate (EC20) added with thallium.
Sequence of UniProt P70579 (P70579 whole entry, looked up): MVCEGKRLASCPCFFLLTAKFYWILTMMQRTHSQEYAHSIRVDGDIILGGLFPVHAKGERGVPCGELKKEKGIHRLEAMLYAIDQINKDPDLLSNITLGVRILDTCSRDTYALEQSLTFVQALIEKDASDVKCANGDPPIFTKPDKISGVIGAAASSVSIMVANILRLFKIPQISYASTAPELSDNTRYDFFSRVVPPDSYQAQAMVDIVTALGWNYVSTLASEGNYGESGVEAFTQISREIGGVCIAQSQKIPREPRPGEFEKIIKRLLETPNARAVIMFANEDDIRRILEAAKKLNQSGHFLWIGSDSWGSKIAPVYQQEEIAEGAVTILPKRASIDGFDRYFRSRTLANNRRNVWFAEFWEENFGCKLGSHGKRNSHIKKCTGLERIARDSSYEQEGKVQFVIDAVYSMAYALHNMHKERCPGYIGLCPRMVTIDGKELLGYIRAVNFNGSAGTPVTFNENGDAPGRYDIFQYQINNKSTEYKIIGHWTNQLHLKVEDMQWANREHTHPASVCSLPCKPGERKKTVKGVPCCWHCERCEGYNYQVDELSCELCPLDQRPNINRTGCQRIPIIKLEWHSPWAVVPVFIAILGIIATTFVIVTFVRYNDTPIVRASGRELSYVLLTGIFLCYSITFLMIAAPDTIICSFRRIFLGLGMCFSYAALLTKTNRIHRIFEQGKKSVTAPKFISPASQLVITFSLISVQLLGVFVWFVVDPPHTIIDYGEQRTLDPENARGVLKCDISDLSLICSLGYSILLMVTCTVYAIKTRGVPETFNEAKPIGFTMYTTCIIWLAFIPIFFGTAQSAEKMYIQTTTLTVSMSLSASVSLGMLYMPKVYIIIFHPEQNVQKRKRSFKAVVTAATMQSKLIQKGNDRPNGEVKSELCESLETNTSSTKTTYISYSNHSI
The compound `CN(C(=O)c1cnccn1)c1nnc(-c2cnccn2)s1` registered a z-score of -1.3. Under `CCn1ncc(Br)c1C(=O)Nc1ccc(Cl)cn1` stands 0.138; under `COc1ccc(C2OC34CCCCC3C(C#N)(C#N)C2(C#N)C(=N)O4)cc1` (centres undefined), -0.29. In the case of `O=C(Nc1nnc(SCc2ccc(Cl)cc2)s1)c1ccco1`, the z-score worked out at 0.62. The result for `CCCN1CCN(CCCNC(=O)c2cc3c(=O)n(C)c4ccccc4c3n2C)CC1` reads 1.48.

The compound `O=[N+]([O-])c1ccc2nc(-c3ccccc3)n(OCc3ccc(Cl)cc3)c2c1` showed a z-score of -0.153. Under `Cc1ccc(OCn2c(=O)sc3ccccc32)cc1` stands -1.31; under `O=C(CC1Oc2ccccc2NC1=O)NCc1ccccc1` (centres undefined), 0.198; under `Fc1ccc(-n2nnnc2-c2cnc(-c3cccs3)nc2C(F)(F)F)cc1`, -0.224. Consider `COc1cc(NC(=O)c2cc3c(C)nc4ccccc4c3o2)cc(OC)c1OC`, for which the z-score was -0.362. Under `CC(C)c1ccc(C2C3CSCC=C3C(C#N)=C(N)C2(C#N)C#N)cc1` (centres undefined) stands -0.405. The result for `CN1CCN(C2=C(Cl)C(=O)C(c3cnc(N4CCCCC4)s3)=C(Cl)C2=O)CC1` reads -0.251; that for `CC1=CC2=NC(=O)/C(=C\c3cccn3CCOc3ccc(C)c(C)c3)C(=N)N2O1`, 0.082; that for `CCOc1ccc(C(=O)NC(=S)Nc2ccc(N3CCCCC3)cc2)cc1[N+](=O)[O-]`, 0.404. Under `COC(=O)c1ccc(/C=N/NC(=O)CC(=O)NCC(C)C)cc1` stands -0.0626. `Cc1cccc(-n2ncc3c(N4CCCC4)ncnc32)c1`: the z-score was -0.272. For the compound `COc1cccc2cc(-c3nnc(SCC(=O)NCCc4ccccc4)n3C)oc12`, the z-score was -0.0662.

As to `Cc1ccc(NC(=O)CSc2nc3c(c(=O)[nH]2)CN(Cc2ccc(F)cc2)CC3)cc1C`, the z-score amounted to 0.411. Under `CC(C)(C)C1CCc2c(sc(NC(=O)c3cccs3)c2C(=O)N2CCCCC2)C1` (centres undefined) stands -0.229; under `COc1ccccc1CNC(=O)C(NS(=O)(=O)c1ccc2c(c1)OCCO2)C(C)C` (centres undefined), -0.203.

On to `Cc1cc(C)c2nc(N3CCC(C(=O)NCCCN4CCCCC4)CC3)sc2c1`, for which the z-score worked out at 0.25. Under `Cc1cc(C)c2nc(SCC(=O)Nc3ccc(S(=O)(=O)N4CCCC4)cc3)c(C)cc2c1` stands -0.138; under `O=C(/C=C/c1ccccc1)NC(=S)Nc1ccc2c3c(cccc13)CC2`, -0.162; under `Cc1cccc(C(=O)O)c1NC(=O)c1ccc(F)cc1`, -0.225.

`Cc1ccc(-c2c(C(=O)NCc3ccc(F)cc3)oc(=O)c3ccccc23)cc1` yielded a z-score of -0.135.

With `CC(C)c1ccc(Nc2cnn(C34CC5CC(CC(CC(=O)O)(C5)C3)C4)c(=O)c2Cl)cc1`, the z-score was -0.0902. Under `Cc1ccc(Cn2c(/C=C/c3ccco3)nc3ccccc32)cc1` stands -0.117. As to `CCN(CC)S(=O)(=O)c1cccc(C(=O)Nc2sc3c(c2C(N)=O)CCCC3)c1`, the z-score was 0.11. The result for `Cc1cc(C)c(NC(=O)CSc2nnc(-c3ccncc3)n2Cc2ccco2)c(Cl)c1` reads 0.453; that for `Nc1c(C2=NCCO2)nnn1Cc1ccccc1`, 0.11; that for `CS(=O)(=O)Nc1ccc(C(=O)NCCSCc2ccco2)cc1`, 0.0408. Under `CCOC(=O)c1ccc(CNC(=O)Cn2nnc(-c3ccc(C)cc3)n2)o1` stands -0.199; under `O=C(NCC(c1cccs1)N1CCOCC1)c1cc2ccccc2o1` (centres undefined), -0.224. `C/C(=N/NC(=O)CCCOc1ccc(Cl)cc1Cl)c1ccc(C)o1` displayed a z-score of -2.09. The result for `COc1ccc(OCCSCc2nnc(NC(=O)Nc3ccc(Cl)cc3)s2)cc1` reads -0.221; that for `COc1ccc(-c2cc(C(=O)Nc3nc4c(C)cccc4s3)c3ccccc3n2)cc1OC`, 0.101; that for `O=C(NCCCO)c1nnc(Cc2c(F)cccc2Cl)o1`, 0.0279. Under `Cc1ccc2[nH]c(=O)c(CN(C(=O)c3cccs3)c3ccccc3)cc2c1` stands -0.287; under `O=c1c2c(nc3cc(-c4ccccc4)[nH]n13)CCS2`, -0.106. Regarding `NC(=O)COc1ccc(=O)n(-c2ccccc2)n1`, the z-score is -0.556. The result for `CC(C)(C)c1ccc(OC2=CS(=O)(=O)c3ccccc32)cc1` reads -0.107; that for `CCOC(=O)c1c(C)[nH]c(C(=O)Cn2c(=O)oc3ccccc32)c1C`, 0.337.

`O=C(CN1CCC(n2nnc3cc(C(F)(F)F)ccc32)CC1)Nc1ccc2c(c1)OCCO2` displayed a z-score of 0.0835. Under `CCSCc1nnc(SCC(=O)c2ccc(OC)cc2)n1C` stands -0.0883; under `O=C(O)CCC(NC(=O)c1cncc(O)c1)C(=O)O` (centres undefined), -0.432; under `CSc1nc(N)nc(SCC(=O)Nc2cccc(F)c2)c1C#N`, 0.132. Under `Cc1cc(C)nc(NS(=O)(=O)c2ccc(NC(=O)Cn3c(=O)oc4ccccc43)cc2)n1` stands -0.444; under `COc1cc2[nH]c(=S)n(CC3CCCO3)c(=O)c2cc1OC` (centres undefined), -0.0769; under `C1=C(c2ccccc2)Nc2ccccc2N=C1c1ccccc1`, 0.0836. Under `Cc1ccc(NC(=O)COn2nnc3ccc(S(=O)(=O)N(C)C)cc32)cc1F` stands active: 3.29. For the compound `O=C(NCSc1ccncn1)c1ccccc1`, the z-score was -0.0653. Take `CC(Sc1nc(-c2ccccc2)cc(=O)[nH]1)C(=O)O` (centres undefined): the z-score was -0.115. The result for `COc1ccc(CNC(=O)c2ccccc2[N+](=O)[O-])cc1` reads -0.0101; that for `O=C(NCc1ccccc1)C(=O)NCC1OCCN1C(=O)c1cccs1` (centres undefined), 0.237. The result for `Cc1cc(NC(=O)/C=C/C(=O)N(c2ccccc2C)C(C(=O)NC2CCCC2)c2ccc(F)cc2)no1` (centres undefined) reads -0.496; that for `Cc1ccc(-n2c(SCC(=O)Nc3cc(C)on3)nc3ccccc3c2=O)cc1`, -0.46; that for `CC(=O)NC(=O)Nc1sc(=S)n(C)c1C`, 0.401. Under `CCOC(=O)c1c(N)n(C2CC(C)(C)NC(C)(C)C2)c2nc3ccccc3nc12` stands -0.154; under `CCN(CC)C(=O)CNC(=O)Cc1ccc(Cl)cc1`, -0.302.

In turn, `CC(C)CC(=O)Nc1cc(NC(=O)CC(C)C)cc(C(=O)NC(C)(C)C)c1` had a z-score of 0.12. Under `C=CCn1c(SCc2cccc3ccccc23)nnc1-c1cccnc1` stands -0.0946. In turn, `Cc1ccc(NC(=O)CC2COc3ccccc3O2)cc1` (centres undefined) returned a z-score of 1.4.

The compound `O=c1cc(/C=C/c2ccccc2)oc2ccccc12` registered a z-score of -0.376. In turn, `COc1ccccc1-n1nnnc1SCc1ccccc1` showed a z-score of -1.83.

With `Cc1nn(-c2ccccc2)c(Cl)c1/C=N/NC(=O)CNC(=O)c1ccccc1Cl`, the z-score is 0.749.

For `CCc1ccc(NSc2ccccc2[N+](=O)[O-])cc1`, the z-score is 0.0687.

Compound `CN(C)c1c([N+](=O)[O-])ncn1C` came in with a z-score of -0.216. `O=C(NCCCn1ccnc1)c1ccc(Br)c(S(=O)(=O)N2CCOCC2)c1` showed a z-score of 0.0366. Under `Cc1ccc(NC(=O)COC(=O)CCC(=O)c2ccc(C(C)(C)C)cc2)c([N+](=O)[O-])c1` stands -0.133; under `CCC(c1nnnn1Cc1ccc2c(c1)OCO2)N1CCN(c2ccc(F)cc2)CC1` (centres undefined), 0.979; under `COC(=O)CN1C(C)=Nc2ccc(Br)cc2C1c1ccccc1` (centres undefined), -0.281. The result for `Cc1cccc(OCC(=O)N(C)CCc2ccccn2)c1` reads -0.0563. The result for `CCOC(=O)C(Cc1ccccc1)NC(=O)CNC(=O)CNC(=O)OCc1ccccc1` (stereo not drawn) (Cbz-Gly-Gly-[ξF]-OEt) reads -0.308; that for `O=C(/C=C/c1cccs1)c1cc(F)ccc1OC(=O)N1CCOCC1`, -0.085. Compound `COc1ccc(N=C(NN)c2ccc3ccccc3n2)cc1` gave a z-score of -0.00827.

`COc1ccc2cc3c(N)nn(C(=O)c4cccc([N+](=O)[O-])c4)c3nc2c1` displayed a z-score of -0.0641. The result for `COc1ccc(OC)c(NC(=S)NCCC(c2ccccc2)c2ccccc2)c1` reads -0.202. Under `CCOC(=O)CCc1c(C)c2ccc(OCc3cc([N+](=O)[O-])ccc3OC)c(C)c2oc1=O` stands 0.0893. The result for `COc1ccc(CC(=O)OCN2C(=O)c3ccccc3C2=O)cc1` reads -0.0589; that for `CCOC(=O)c1c(NC(=O)COC(=O)c2ccccn2)sc2c1CCC2`, -0.578; that for `O=C1NN(c2ccc(Cl)c(Cl)c2)C(=O)/C1=C/c1cccc(OC(=O)c2cccs2)c1`, 0.137. In the case of `Cc1cc(C)cc(OCC(=O)O/N=C(\N)c2ccccn2)c1`, the z-score is -1.66. On to `O=C(COC(=O)Cc1ccccc1F)Nc1ccc2c(c1)OCCO2`, for which the z-score is -0.043.

For the compound `CC(C)CNC(=S)NNC(=O)c1csc2c1CCC(C)C2` (centres undefined), the z-score was -1.59. Consider `COc1ccc(NS(=O)(=O)c2cc(NC(=O)CNC(=O)c3cccc(OC)c3)ccc2C)cc1`, for which the z-score was -0.127.

In the case of `CS(=O)(=O)N1CCCC(C(=O)NCc2ccccn2)C1` (centres undefined), the z-score stood at 0.915. The result for `COc1cccc2c(=O)n(CC(=O)Nc3ccc(F)cc3F)ccc12` reads 0.0182; that for `O=[N+]([O-])c1cccc(CSc2nc3ccccc3[nH]2)c1`, 0.239; that for `CCOc1ccc(C(F)(F)F)cc1NC(=O)c1ccc(OC)c([N+](=O)[O-])c1`, 0.372. In turn, `N#Cc1nc(Cc2ccccc2)oc1NCCN1CCOCC1` returned a z-score of -0.064. Regarding `O=C(NCC(=O)N(CC1CCCO1)C1(C(=O)NC2CCCCC2)CCCCC1)c1ccccc1` (centres undefined), the z-score was -1.13. The result for `CCOc1cc(S(=O)(=O)N2CCCC2)ccc1Cl` reads 0.185; that for `COCCNc1cc(C)nc2c3c(C)cc(C)nc3nn12`, -0.343. The result for `COC(=O)C(NC(C)=O)(Nc1ccccn1)C(F)(F)F` (centres undefined) reads 0.324.

`COc1ccc(NC(=O)Nc2cc(C)ccc2F)cc1` showed a z-score of 0.0419. Under `Cc1ccc(S(=O)(=O)N2CCCC(C(=O)NCC3COCCO3)C2)cc1` (centres undefined) stands -0.056. Under `COC(=O)Cn1c(CN2CCC(Cc3ccccc3)CC2)nc2c1c(=O)n(C)c(=O)n2C` stands 0.485; under `COc1cc(NC2=Nc3cccc4cccc2c34)cc(OC)c1OC`, -0.385. Under `O=C(CSCc1ccccc1Cl)N1CCN(c2ccccn2)CC1` stands -0.566.

For the compound `Cc1cccc(C2CC(c3ccc(Br)cc3)Nc3nc(N)nn32)c1` (centres undefined), the z-score was 0.474. The result for `O=C(COc1cc(Cl)c(Cl)cc1Cl)NCCN1CCOCC1` reads -0.906; that for `O=C(NCC1CCCO1)c1ccc(S(=O)(=O)N2CCCCC2)cc1` (centres undefined), -0.0626. `O=C1c2ccccc2-c2cccc(NS(=O)(=O)c3ccc(C(F)(F)F)cc3)c21` registered a z-score of 2.66. The compound `Cc1nonc1C(=O)N/N=C/c1ccc(O)c(O)c1` gave a z-score of -0.332. Under `O=C(NCc1ccco1)C1CCN(Cc2ccc(F)cc2)CC1` stands 0.293; under `O=C(NCc1ccccc1Cl)C1CCCN(S(=O)(=O)c2cnc[nH]2)C1` (centres undefined), -0.129; under `O=C(c1cn(-c2ccccc2)nc1-c1cccnc1)N1CCCCC1`, -0.0479. Under `CCOC(=O)C(=O)Nc1ccc2c(c1)OCO2` stands 0.0617; under `CS(=O)(=O)N(CC(=O)Nc1ccc(F)c(F)c1)c1cccc([N+](=O)[O-])c1`, 0.348.

Values taken from PubChem BioAssay AID488969 (Vanderbilt High Throughput Screening Facility, 2010).
